Test results from the supplement of paper PMC11417369.
± gives the standard deviation of the averaged measurements. The list shows a part of the results.

Each sequence was assayed on PfAP2-G AP2 domain (GST-tagged) (assay: gcPBM binding intensity (ln(normalized median fluorescence intensity)); higher = stronger DNA binding).
Procedure, shortened: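 An Agilent 4 × 180k array carrying primer-extended double-stranded 36-bp intergenic genomic probes and negative controls received GST-tagged P. falciparum DNA-binding domains expressed in E. coli, about 25 μg on average, for 1 h. The binding buffer contained 1× PBS, 1% milk, 0.2 mg/ml BSA, 0.5% salmon testes DNA and 0.03% Triton X-100. Binding intensity is the top Masliner-normalised natural-log median intensity across replicate spots of either probe orientation, read after Alexa488 anti-GST antibody staining and a 488 nm scan.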

| Sequence | gcPBM binding intensity (ln) |
| --- | --- |
| TATGTACACCCATATACACACCTCTATAATATATAT [CACACA_site4563] | 11.6 ± 0.95 |
| ATATTGTAGATATTGTGTACATATTTTACAACTTTT [XGTACX_site7621] | 11.5 ± 0.91 |
| ACATCATATTAAGAAAGTACAAAAAGAGAACATATA [XGTACX_site1268] | 11 ± 0.4 |
| AAACAAAATTTATTTCAAAGTTAATAATTTTTATGT [CACACA_negctrl_site232] | 9.45 ± 0.23 |
| TTTTTCACATTTCAGTGTACATTTTAATCATATATA [XGTACX_site915] | 11.2 ± 0.79 |
| CGACAAAAATTTTACAGTACAGTATAAACCTTTTTA [XGTACX_site290] | 11.2 ± 0.84 |
| ATTTTTTTTTTTTTTTTAAGACAAACTCTTAATTTA [CACACA_negctrl_site1389] | 9.9 ± 0.22 |
| ATTCCAAAAAAATCAAGTACTAATTTATTATATTAC [XGTACX_site3920] | 10.9 ± 0.49 |
| TATTTTTTTAAGTGCAGTACACTTAATTTCCCCCAA [XGTACX_site7328] | 11.5 ± 1.2 |
| AAAAAAAAAAAAAAAAAAATATATTATATATATATA [XGTACX_negctrl_site467] | 10.3 ± 0.23 |
| TATATATATATAAATACATGCATATAATTAATCCAT [TGCATGCA_site400] | 9.85 ± 0.31 |
| TCAAAAAATATATTTGCACACTCAAAAAAAAAAAAA [CACACA_site860] | 9.82 ± 0.41 |
| TACACACATTACAGATGTACATAAAATTAAAAAAAT [XGTACX_site1804] | 11.3 ± 0.71 |
| CCTAGAAAAGCATATACACACGCGCAAAATAAAATT [CACACA_site4902] | 10.3 ± 0.26 |
| TCTTTAAAAAAAAAAAAAAAAAATTCCAAATAAATA [TGCATGCA_negctrl_site538] | 9.39 ± 0.042 |
| ACAGGAGTATAACCTCGTACAAAATATATTTACCAT [XGTACX_site5805] | 10.8 ± 0.42 |
| TAAAAATAAAGAAAATGTACATAAATAAAAATAAAG [XGTACX_site2279] | 11.2 ± 0.64 |
| TATATATATACATAATGTACAAGAATTTGTATTGAA [XGTACX_site627] | 10.8 ± 0.45 |
| TATAAAAAAAAAATTTGTACATAATAATATATATAT [XGTACX_site2074] | 10.7 ± 0.49 |
| TTATATATAAAATACTGTACATTTAATTGATGGTTT [XGTACX_site2073] | 11.1 ± 0.72 |
| GAATGAATTGTTATTAGTACACATGTGAATTATAAA [XGTACX_site6790] | 11.3 ± 0.76 |
| ACACATTATAAAACTGTCGCTCATAAAGAAGAATGA [CACACA_negctrl_site999] | 10.17 ± 0.071 |

| Sequence | gcPBM binding intensity (ln) |
| --- | --- |
| GCAACAAAAAATCAGACATGCATTTTAAAATGAATA [TGCATGCA_site846] | 9.67 ± 0.099 |
| CATATTGAATATTTAACACACATTTCGCTTAATTCA [CACACA_site2086] | 9.95 ± 0.11 |
| ATTTTTTTTTTTTTTATTCCCCTTTCGAAAAAAACC [CACACA_negctrl_site1139] | 10.2 ± 0.3 |
| ATATGTTTACGTAAATGTACACGTCAGTATATTTCT [XGTACX_site8199] | 11.4 ± 0.64 |
| ATATATATATAACATTGTACACACAAAGAAATAATA [XGTACX_site6440] | 11.2 ± 0.76 |
| TTTTATAATAAGTATGTAAAAATTATATATATATAT [CACACA_negctrl_site711] | 9.97 ± 0.45 |
| AACTTGTATATATACACACACACACTATCTTTTTTT [CACACA_site8601] | 10.08 ± 0.028 |
| AAAAAGCAGGATTATACACACAAATATATATATGTT [CACACA_site1077] | 9.88 ± 0.16 |
| TATATAAATTTAATAACACACATATAAAAATGAATT [CACACA_site2366] | 9.82 ± 0.071 |
| CTTTTATATGTCTAATGTACGGGCAATATAAATTTG [XGTACX_site8323] | 11 ± 0.63 |
| GTTGAGAAAATATGTGCATGTCAGGTTAAATTTTTA [TGCATGCA_site744] | 9.99 ± 0.028 |
| ATTATATCATCTAAAACATGCACACATATGTACTCT [TGCATGCA_site949] | 11.1 ± 0.67 |
| ATATATATATATATATGTACATAATATATGTCCTAT [XGTACX_site5087] | 11.1 ± 0.52 |
| GTAAGCATAAATATATGTACATACATATACAGATAT [XGTACX_site3361] | 11.2 ± 0.57 |
| TAAGATAAAAAAAATGCATGTTCTTATAATATTGTC [TGCATGCA_site939] | 9.53 ± 0.25 |
| ATTAGTTTACACATATGTACATATATTACAACAAAA [XGTACX_site275] | 11.2 ± 0.67 |
| TATGGAAATATATATTGTACGTATGACCTTTAAAAA [XGTACX_site3935] | 11.5 ± 0.93 |
| TTACAAAAAAATAATTGTACATACAATTTCTGTTAT [XGTACX_site877] | 11.1 ± 0.58 |
| TTTATATGTATGAAGTGTACACATATATTGTATTTT [XGTACX_site5731] | 11.6 ± 0.82 |
| GGTGATATAATATATACATGCACATATATATTATTA [TGCATGCA_site970] | 9.9 ± 0.042 |
| TACGGACATACTAACGGACACACGTAAGAAAAAAAA [CACACA_site602] | 11.1 ± 0.75 |
| TTTATGTATTTTTATGCACACATGCGTGGCTTATAT [CACACA_site4374] | 10.2 ± 0.2 |
